Molecules are shown by their SMILES. The campaign covered roughly 310,000 compounds. About 14,000 (4.5%) showed an effect of 50% or more. The effect is printed as a negative number. This is one part of the list.

These results are taken from publication PMC4336329 (PLoS ONE, 2015).
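Note: peak tail current of the secondary pulse compared with the same well before compound.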

This assay deals with human ether-à-go-go-related gene (hERG) potassium channel (human, UniProt Q12809). Nature of the assay: primary screen, population patch clamp on CHO cells stably expressing hERG.
human ether-à-go-go-related gene (hERG) potassium channel, sequence (Q12809 whole entry, looked up): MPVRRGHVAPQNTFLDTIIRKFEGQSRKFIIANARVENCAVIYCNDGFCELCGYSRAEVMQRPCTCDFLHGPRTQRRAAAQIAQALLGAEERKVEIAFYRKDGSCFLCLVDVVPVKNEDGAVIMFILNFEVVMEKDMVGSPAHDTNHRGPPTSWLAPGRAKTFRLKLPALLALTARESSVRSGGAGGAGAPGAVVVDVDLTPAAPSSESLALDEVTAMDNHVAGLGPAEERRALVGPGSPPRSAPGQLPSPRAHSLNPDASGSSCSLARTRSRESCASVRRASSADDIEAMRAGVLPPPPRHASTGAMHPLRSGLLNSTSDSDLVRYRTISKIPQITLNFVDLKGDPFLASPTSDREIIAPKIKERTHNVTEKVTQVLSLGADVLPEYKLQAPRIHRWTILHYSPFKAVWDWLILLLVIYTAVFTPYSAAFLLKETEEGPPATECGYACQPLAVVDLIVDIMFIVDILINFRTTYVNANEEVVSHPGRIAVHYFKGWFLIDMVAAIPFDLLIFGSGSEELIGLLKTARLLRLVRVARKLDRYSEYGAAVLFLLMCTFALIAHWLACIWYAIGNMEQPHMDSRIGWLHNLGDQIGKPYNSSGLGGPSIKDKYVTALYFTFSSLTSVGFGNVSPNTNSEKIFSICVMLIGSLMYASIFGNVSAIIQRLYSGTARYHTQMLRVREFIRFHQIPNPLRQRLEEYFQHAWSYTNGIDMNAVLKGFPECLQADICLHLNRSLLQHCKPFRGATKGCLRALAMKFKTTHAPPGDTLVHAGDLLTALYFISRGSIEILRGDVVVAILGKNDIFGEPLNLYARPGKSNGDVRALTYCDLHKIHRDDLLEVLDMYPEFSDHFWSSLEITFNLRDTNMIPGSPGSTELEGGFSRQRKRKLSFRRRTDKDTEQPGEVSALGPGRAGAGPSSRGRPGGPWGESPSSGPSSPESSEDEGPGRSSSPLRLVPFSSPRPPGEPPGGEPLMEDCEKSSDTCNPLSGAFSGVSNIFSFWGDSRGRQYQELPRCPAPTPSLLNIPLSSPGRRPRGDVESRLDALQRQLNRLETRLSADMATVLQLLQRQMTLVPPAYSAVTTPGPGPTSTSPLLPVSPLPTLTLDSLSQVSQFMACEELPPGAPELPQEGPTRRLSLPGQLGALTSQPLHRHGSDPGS
Consider `Cc1ccc(S(=O)(=O)N2CCCCC2)cc1NC(=O)COC(=O)Cc1cccc(C(F)(F)F)c1`, for which the “hERG current change (%, negative = inhibition) at 10uM” value was -9.57%.
In the case of `CCC(=O)Nc1cc(C(=O)O)ccc1S(=O)(=O)c1ccc(C)cc1`, the “hERG current change (%, negative = inhibition) at 10uM” value was determined as 4.39%.
In the case of `CCc1cc(-c2n[nH]c(=S)n2-c2ccccc2C)cs1`, the “hERG current change (%, negative = inhibition) at 10uM” value is -9.12%.
Take `Cc1cc(C)cc(OCC(O)CN2CCC(CN3C(=O)c4cccc5cccc(c45)C3=O)CC2)c1.Cl` (stereo not drawn): the “hERG current change (%, negative = inhibition) at 10uM” value is given as -70%.
The value for `CN(CC(=O)O)S(=O)(=O)c1ccc2oc3ccccc3c2c1` was 10.5%; that for `COC(=O)N1CCN(C(=O)Cc2ccc(Cl)c(Cl)c2)C(CN2CCCC2)C1.O=C(O)/C=C/C(=O)O` (stereo not drawn) was -29.5%.
As for `COc1ccc2[nH]c(=O)c(CN(Cc3cccnc3)C(=S)NCC3CCCO3)cc2c1` (stereo not drawn), the figure is -11.9%.
Turning to `CCOC(=O)C1CCCN(CCc2ccccc2)C1` (stereo not drawn), the “hERG current change (%, negative = inhibition) at 10uM” value was determined as 1%.
For `Cc1ccccc1Nc1nc(-c2sc(NC(=O)c3ccccc3)nc2C)cs1`, the “hERG current change (%, negative = inhibition) at 10uM” value amounted to 25.7%.
As to `COc1ncnc2c1oc1nc(C(C)C)c3c(c12)CC(C)(C)OC3`, the “hERG current change (%, negative = inhibition) at 10uM” value stood at 9.43%.
As for `CNc1nc(-c2cccs2)cc(C(F)(F)F)c1C#N`, the “hERG current change (%, negative = inhibition) at 10uM” value was found to be 3.45%.
On to `O=C(NCc1cccnc1)c1ccc(Cn2cc(C(F)(F)F)ccc2=O)cc1`, for which the “hERG current change (%, negative = inhibition) at 10uM” value came out at 15.3%.
As for `CCCC(=O)Nc1cc(C(=O)N2CCC3(CC2)OCCO3)ccc1S(=O)(=O)c1ccc(C)cc1`, the figure is -14%.
As for `COC(=O)C1=NN[C@H](C(=O)OC)[C@H]1c1ccccc1`, the figure is 14.2%.
In the case of `Cc1oc(-c2ccc(Cl)cc2)nc1CS(=O)CC(=O)N1CCC2(CC1)OCCO2` (stereo not drawn), the “hERG current change (%, negative = inhibition) at 10uM” value is -11.4%.
The value for `CCN(CC)CCN1C(=O)C(O)=C(C(C)=O)C1c1ccc(OC)c(OC)c1` (stereo not drawn) was 2.82%.
With `O=C(NCCN1C(=O)S/C(=C\c2ccc(Cl)c(Cl)c2)C1=O)c1cnccn1`, the “hERG current change (%, negative = inhibition) at 10uM” value turned out to be 1.98%.
Consider `CCCC12CN3CC(C)(CN(C1)C31C(=O)Nc3ccc(C)cc31)C2=O` (stereo not drawn), for which the “hERG current change (%, negative = inhibition) at 10uM” value is given as -1.83%.
In the case of `CNC(=S)N1CCN(S(=O)(=O)c2ccc3ccccc3c2)CC1`, the “hERG current change (%, negative = inhibition) at 10uM” value was -15.4%.
The value for `CCOc1cccc(N(C(=O)C2COc3ccccc3O2)C(C(=O)NC2CCCCC2)c2ccc(O)cc2)c1` (stereo not drawn) was 17.6%.
On to `COc1cccc(C2CC(c3cccs3)Nc3ncnn32)c1` (stereo not drawn), for which the “hERG current change (%, negative = inhibition) at 10uM” value is reported as -9.49%.
For the compound `Cc1cc(-c2ccccc2)nc(SCc2ccc(C(=O)O)cc2)n1`, the “hERG current change (%, negative = inhibition) at 10uM” value is 23.8%.
The value for `N#Cc1cc([N+](=O)[O-])ccc1Oc1cccc(/C=N/NC(=O)c2ccc(Cl)cc2)c1` was -2.51%; that for `CN1CCN(S(=O)(=O)c2cc([N+](=O)[O-])ccc2Cl)CC1` was 5.56%; that for `Cc1ccc(N=Cc2cc(C)n(C3CCCC3)c2C)cc1` was 7.09%.
Consider `Cc1cnc(NC(=O)CSc2ncc(-c3ccccc3)n2Cc2ccco2)s1`, for which the “hERG current change (%, negative = inhibition) at 10uM” value turned out to be 0.816%.
As to `COc1ccc(-c2nnc(SCc3c(C)noc3C)n2N)cc1OC`, the “hERG current change (%, negative = inhibition) at 10uM” value is reported as -3.18%.
Consider `CC(O)c1nc2ccc(C(=O)O)cc2[nH]1.Cl` (stereo not drawn), for which the “hERG current change (%, negative = inhibition) at 10uM” value is listed as 3.68%.
As for `O=C(O)C1C2C=CC3(CN(Cc4ccncc4)C(=O)C13)O2` (stereo not drawn), the figure is 18%; as for `CCOC(=O)c1ccccc1NC(=O)CN(c1cccc(OC)c1)S(C)(=O)=O`, -10.4%.
On to `O=C(NCCOc1ccccc1)C1Nc2ccc(C(F)(F)F)cc2C2c3ccccc3CC12` (stereo not drawn), for which the “hERG current change (%, negative = inhibition) at 10uM” value was found to be 7.19%.
With `CC(C)(C)NC(=O)c1ccc2c(c1)C1C3CCC(C3)C1C(c1ccccc1)N2` (stereo not drawn), the “hERG current change (%, negative = inhibition) at 10uM” value stood at 5.59%.
The value for `O=C(CNC(=O)c1ccc2ccccc2c1)Nc1ncccc1O` was -7.67%.
`Cc1cc(OC(C)C(=O)N/N=C/CC(C)c2ccccc2)ccc1Cl` (stereo not drawn): the “hERG current change (%, negative = inhibition) at 10uM” value is given as 16.1%.
For `O=C(COc1ccccc1)Nc1ccncc1Cl`, the “hERG current change (%, negative = inhibition) at 10uM” value is 6.33%.
As for `CCc1noc(C)c1C(=O)Nc1nc2c(F)cc(F)cc2s1`, the figure is 4.53%; as for `Cc1ccc(NC(=O)C2Oc3ccccc3OC2C)cc1` (stereo not drawn), 8.68%; as for `O=[N+]([O-])c1ccc(Cl)c(S(=O)(=O)Nc2cccc(-c3ccc(N4CCCC4)nn3)c2)c1`, -19.4%.
Turning to `O=C(c1ccc([N+](=O)[O-])s1)N1CCc2ccccc21`, the “hERG current change (%, negative = inhibition) at 10uM” value amounted to 20.8%.
For the compound `Cc1ccccc1NCC(=O)N/N=C/c1c(C)c(C(=O)c2ccc(Cl)cc2)n2ccccc12`, the “hERG current change (%, negative = inhibition) at 10uM” value is -4.11%.
As for `Cc1cc(C(=O)CSc2nc3ccccc3c(=O)[nH]2)c(C)n1C`, the figure is -1.99%; as for `Cn1c(-c2sc3cc(C(F)(F)F)cnc3c2-c2ccccc2)n[nH]c1=S`, 20.1%.
